The campaign covered roughly 420,000 compounds. About 50,000 (12%) were called active. The shares of active, inactive and inconclusive entries below differ from those in the screen. Calls come from the whole dose curve; as a rule, active = well fitted inhibition curve with a large enough effect; inconclusive = small, poorly fitted or top-dose-only effect; inactive = flat fitted curve, though single readings scatter. No potency is given beside an inconclusive call; the fits are too rough.
Experiment: qHTS for Inhibitors of human tyrosyl-DNA phosphodiesterase 1 (TDP1): qHTS in cells in presence of CPT; note: nearly all actives have a fitted effect of over 55% in size
Conditions: chicken DT40 Tdp1-/-;hTDP1 cells + 20 nM CPT, ATP luminescence, 48 h; activity change, negative = growth inhibition: at 46.2 µM (top of the series) unless noted
Procedure, shortened: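 Chicken DT40 Tdp1-/- cells stably complemented with human TDP1 were seeded at 400 cells/well in medium containing 20 nM camptothecin, exposed to pin-transferred compounds, and grown at 37 °C for at least 48 hr. Viability was read as ATP luminescence.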
% is set by controls: 0 for no effect and ±100 for the full control effect; potency is the fitted concentration of half-maximal effect; tags give direction and shape of the fitted curve.

SMILES | activity change, negative = growth inhibition | Potency
CCOC(=O)N1CCN(C(=O)CCN2C(=O)/C(=C\c3cccc(OC)c3)SC2=S)CC1 | inactive: -96.4% | –
COC/C=C/C1=CC2=CC(=O)C(C)(OC(=O)c3cnc4ccccc4n3)C(=O)C2=CN1Cc1ccc(OC)cc1 (configuration not stated) | – | active: 23.1 µM
CCOc1ccc(Oc2ccc(S(=O)(=O)N3CCOCC3)cc2N)cc1 | – | inconclusive [inhibitor, single point]
Cc1ccc(C(=S)NCS(=O)(=O)c2ccc(C)cc2)cc1 | – | active: 13 µM
CCCC(=O)C1=C(c2ccc(C)cc2)N(C(=O)CCC)n2cnnc2S1 | – | inconclusive [inhibitor, single point]
CN(CC(=O)Nc1cccc(F)c1)C(=O)COc1ccc2c(c1)CCC2 | – | inconclusive [inhibitor, single point]
COc1cccc(-c2nc3cc(C)ccc3o2)c1 | inactive: -20.2% | –
COc1ccc(-c2nc3scc(CCNS(=O)(=O)c4ccc(F)c(C(F)(F)F)c4)n3n2)cc1OC | – | active: 14.6 µM
CCOc1ccc(CCN2C(=O)C(=O)N([C@@H](CC(C)C)CN3CCC[C@H]3CN3C(=O)C(=O)NC[C@@H]3Cc3ccc(O)cc3)C[C@@H]2CC(C)C)cc1 | – | inconclusive [inhibitor, single point]
CCN1CCN(c2cc(C)c3cc(NC(=O)c4cccc(Cl)c4)ccc3n2)CC1 | – | active: 14.6 µM
O=C(CNC(=O)c1ccccc1Cl)Nc1ccncc1 | inactive: -21.8% | –
COc1cc(C(=O)C(=O)N2CCN(c3ccccc3)CC2)cc(OC)c1OC | – | active: 3.66 µM
O=c1c2ccccc2[nH]c(=S)n1CCCN1CCN(C2CCCCC2)CC1 | inactive: 16.6% | –
C1CN(c2nc(N3CCOCC3)nc(N3CCOCC3)n2)CCO1 | inactive: -13.7% | –
CN(C)NC1CC(=O)N(c2ccccc2)C1=O (configuration not stated) | – | inconclusive [inhibitor, single point]
OC(c1ccc(F)cc1)c1nc(/C=C/c2ccccc2)cs1 (configuration not stated) | – | inconclusive [inhibitor, single point]
CC(C)CN(C(=O)COc1ccc(C(C)(C)C)cc1)C1CCS(=O)(=O)C1 (configuration not stated) | inactive: -29.4% | –
O=C(NCC1CCCO1)c1ccc(Oc2ccc([N+](=O)[O-])cc2)cc1 (configuration not stated) | – | inconclusive [inhibitor, single point]
Cc1occc1-c1nnc(SCC(=O)NC2(C#N)CCCC2)n1C | inactive: -10.5% | –
CCCCN(C)C1=CC2=CC(=C(C#N)C#N)CCC2CC1 (configuration not stated) | – | inconclusive [inhibitor, single point]
Cc1ccc(NC(=O)c2cnc(N3CCCCC3)c3ccccc23)cc1Cl | – | active: 20.6 µM
COc1ccc(C(=O)Nc2ccc(C)cn2)c(OC)c1 | – | active: 20.6 µM
CCN(CC)C(=O)CCCOc1ccc(Cl)cc1Cl | – | inconclusive [inhibitor, single point]
COc1ccc(C(c2nnnn2CCc2ccccc2)N2CCN(C3CCCC3)CC2)cc1OC (configuration not stated) | inconclusive: -33% [inhibitor] | –

SMILES | activity change, negative = growth inhibition | Potency
Cc1cccc(C)c1OCc1n[nH]c(=S)n1-c1ccccc1 | – | inconclusive [inhibitor, single point]
Cc1cc(C)cc(S(=O)(=O)c2cn(C)c3cc(N4CCN(C)CC4)c(F)cc3c2=O)c1 | – | inconclusive [inhibitor, single point]
CCOc1ccccc1C1CC(=O)NC2=C1C(=O)CCC2 (configuration not stated) | – | inconclusive [inhibitor, single point]
CCc1cccc(CC)c1NC(=S)NCCc1ccc(O)c(O)c1 | – | active: 23.1 µM
COC(=O)C1=C(C(=O)OC)SC(=C2C(=S)C(C)(C)N(C(=O)CC(C)C)c3ccccc32)S1 | – | active: 25.9 µM
Cc1ccc(OCCn2cc(C(=O)c3ccco3)c3ccccc32)cc1C | – | active: 14.6 µM
O=[N+]([O-])c1cc2ncccc2c2ncccc12 | – | active: 6.51 µM
S=c1[nH]nc(COc2ccccc2)n1/N=C/c1ccc(Cl)cc1Cl | inactive: -7.36% | –
O=c1oc2c(-c3ccc([N+](=O)[O-])cc3)cc(O)cc2s1 | – | inconclusive [inhibitor, full curve, poor fit]
CCCCNC(=O)c1[nH]c(C2CCNCC2)nc1-c1cccc(C(F)(F)F)c1 | – | inconclusive [inhibitor, single point]
Cn1c(=O)[nH]c(=O)c2c1nc(Br)n2CC(O)COc1ccccc1 (configuration not stated) | inactive: -1.06% | –
COc1cc2c(cc1NC(=S)NC(=O)c1c(OC)cccc1OC)oc1ccccc12 | – | inconclusive [inhibitor, single point]
O=C(OCC(=O)N1CCCC1)c1ccco1 | – | inconclusive [inhibitor, single point]
COCCCNC(=O)C[C@@H]1C[C@@]2(C(=O)OC)CC(C)(C)CC=C2N(Cc2ccc3c(c2)OCO3)C1=O | inactive: 13.3% | –
Cc1n[nH]c(C)c1CCc1nc2c3ccccc3nc(SCC(=O)Nc3ccc(F)cc3)n2n1 | – | active: 18.4 µM
COC(=O)c1scc(-c2ccc(C)cc2)c1S(=O)(=O)Nc1cccc(Cl)c1C | – | inconclusive [inhibitor, single point]
COc1ccc(NC(=O)CCNS(=O)(=O)c2cccc3nsnc23)c(OC)c1 | inactive: 10% | –
Fc1cccc(Cc2c(-c3cccc(Cl)c3)nc3ccc(Cl)cn23)c1 | – | inconclusive [inhibitor, single point]
CCOC(=O)N1CCN(C(=O)C[C@@H]2C[C@@]3(C(=O)OC)CCCCC=C3N(CCc3ccc(OC)c(OC)c3)C2=O)CC1 | – | inconclusive [inhibitor, single point]
Cn1c(SCC(=O)Nc2ccc(N3CCOCC3)cc2)nnc1C(F)(F)F | inactive: -0.589% | –
COc1ccc(C(=O)Nc2nnc(C3=COCCO3)o2)cc1 | inactive: -25.9% | –
Cc1ccc(CNC(=O)Cn2cc(S(=O)(=O)Cc3cccc(Cl)c3)c3ccccc32)cc1 | – | inconclusive [inhibitor, partial curve, poor fit]
COCOCCn1cc(CN2CCS(=O)(=O)N(Cc3ccc(-c4ccc(C)cc4)cc3)C(CC(C)C)C2=O)nn1 (configuration not stated) | inactive: -64.2% | –

— PubChem BioAssay AID686979 (National Center for Advancing Translational Sciences (NCATS), 2013)
